# According to the supplement of paper PMC5655136:
# Read counts after selection give these values, which scatter widely.
# Tested on: NB7
# Assay: fold depletion of shRNA, plasmid library share / infected cells without Dox share (9 days) (ratio); higher = more depleted after infection (more toxic, leaky expression from a Tet-inducible vector; NB7 is a neuroblastoma line without caspase-8)
# Settings: shRNA pool: CD95L ORF + CD95L 3'UTR + Venus libraries
# 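Also: shRNA barcodes quantified by deep sequencing of PCR amplicons from cellular DNA, counts expressed as percent of each subpool, ratio averaged over two biological duplicates.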
row,Sequence,fold depletion of shRNA
1,CCACATGAAGCAGCACGACTT,1.14
2,TGTGTGTATGACTAAAGAGAG,0.996
3,TGGTGCCCATCCTGGTCGAGC,2.4
4,CATTCCTAACACAGCATGTGT,1.59
5,CCTGAGCAAAGACCCCAACGA,2.01
6,AAAGAGAGAATGTAGATATTG,1.04
7,CATCGAGCTGAAGGGCATCGA,0.681
8,AACACCCCCATCGGCGACGGC,3.83
9,ACGGCCCCGTGCTGCTGCCCG,0.612
10,AACAACCTGCCCCTGAGCCAC,0.203
11,TTTGTATATTCCAAAGTATAC,0.531
12,AATAAGCTAAAGAGGCTGAAA,1.85
13,CCACAAGTTCAGCGTGTCCGG,1
14,TACAACAGCCACAACGTCTAT,4.85
15,CCGACCACTACCAGCAGAACA,2.31
16,GTCTACATGAGGAACTCTAAG,1.08
17,ACTCACCTAATGTTTATGAGC,1.64
18,CTACCAGTCCGCCCTGAGCAA,0.484
19,CCCCCTGAAAAAAAGGAGCTG,3.05
20,GAAACTGGGCTGTACTTTGTA,0.546
21,GGAGAAGCATGAAAAAGCAGC,2.37

row,Sequence,fold depletion of shRNA
1,CTCCACTACCGCTGCCACCCC,1.28
2,AAAGGACACCTTTTAACTCAC,0.888
3,GAAGCGCGATCACATGGTCCT,0.568
4,TCTAAGTATCCCCAGGATCTG,3.01
5,CCAACGAGAAGCGCGATCACA,0.988
6,AACTCTAAGTATCCCCAGGAT,1.77
7,CATGAAAAAGCAGCTACCAGG,0.389
8,GTGTTCAATCTTACCAGTGCT,0.803
9,CAGACAAATGGAGGAATATGA,0.793
10,AGTATACTTCCGGGGTCAATC,3.04
11,CCTTGTGATGTTTTTCATGGT,1.94
12,ATCTTAGTGCCTGAGAGTATT,0.924
13,TCTTCAAGGACGACGGCAACT,1.75
14,AGATCCGCCACAACATCGAGG,1.52
15,CATTGATTGTCAGCTACTAAT,0.587
16,TACCAGCCAGATGCACACAGC,0.723
17,CCCCAGGATCTGGTGATGATG,0.443
18,AAAAAAAGGAGCTGAGGAAAG,5.32
19,GGTCGAGCTGGACGGCGACGT,1.31
20,CCCTGGGCTACGGCCTGCAGT,0.653
21,AGAGAGAATGTAGATATTGTG,0.892

row,Sequence,fold depletion of shRNA
1,CGAGAATGTTGTATTCAGTGA,2.62
2,GGGCACAAGCTGGAGTACAAC,1.35
3,TGCCTGAGAGTATTTAGGCAG,1.24
4,GAACCGCATCGAGCTGAAGGG,1.38
5,TTGGGGACTCATTTCATTCCT,1.2
6,ATCCTGAGCCATCGGTGAAAC,1.23
7,GTATAAGAAGGGTGGCCTTGT,1.75
8,CAAGAGAGATGTTTTGGGGAC,1.15
9,CACCTATGGAATTGTCCTGCT,1.63
10,TTTCAGCTCTTCCACCTACAG,3.05
11,CTGATCATTTATATGTCAACG,0.78
12,GAAGACACCTATGGAATTGTC,0.876
13,GAGAAGCAAATAGGCCACCCC,0.467
14,GGGGCACAAGCTGGAGTACAA,1.21
15,CTTGCTACCTCAAGGGGGACT,1.63
16,TAAATGCATATCCTGAGCCAT,1.61
17,CTGAGCCACAAGGTCTACATG,0.265
18,CTGGTGATGATGGAGGGGAAG,0.856
19,AGAAGAGAGGGAACCACAGCA,2.94
20,TGGGCCCCTCCAGGCACAGTT,0.899
21,ATCATTGATTGTCAGCTACTA,1.16

# Same assay, conditions: shRNA pool: CD95 ORF + CD95 3'UTR + Venus libraries
row,Sequence,fold depletion of shRNA
1,CCACATGAAGCAGCACGACTT,1.6
2,AAACTGAAGCAGATACCTGGA,0.823
3,ATGCAGAAGATGTAGATTGTG,1.05
4,TGTAGATTTTTAATATCTCAT,0.706
5,ACCAGCAACACCAAGTGCAAA,0.931
6,TGGTGCCCATCCTGGTCGAGC,0.796
7,TGTGACATGTCATGAACCCAT,0.926
8,AAGCCCTGTCCTCCAGGTGAA,0.492
9,CTGCACCCGGACCCAGAATAC,1.41
10,CCTGAGCAAAGACCCCAACGA,1.07
11,CATCGAGCTGAAGGGCATCGA,0.824
12,CCCTGTCCTCCAGGTGAAAGG,1.77
13,AACACCCCCATCGGCGACGGC,2.53
14,ACGGCCCCGTGCTGCTGCCCG,0.353
15,TGAAGCCAAAATAGATGAGAT,1.29
16,TACCTCTGATAATTCTAGAGA,1.54
17,ACCCGGACCCAGAATACCAAG,1.38
18,ACCTAAAGAACTTCCATTTAT,0.781
19,CTACCTACTTCTTTCTCAGGC,1.42
20,TTGAAAGTTTGTATTAAATGT,0.983
21,ACTTAATAGTCCACCAAAAGG,0.765
22,TGGGCATCTGGACCCTCCTAC,1.02
23,CCACAAGTTCAGCGTGTCCGG,1.61
24,TACAACAGCCACAACGTCTAT,1.88
25,CCGACCACTACCAGCAGAACA,1.66
26,AAGCTATGACCTTTTGCTGAA,1.28

row,Sequence,fold depletion of shRNA
1,GTAAATACTGCTTGGTTTTTT,0.952
2,TAAGATTCTCCTTACTACTAT,0.821
3,ATGAAGCAGCACGACTTCTTC,4.02
4,CTACCAGTCCGCCCTGAGCAA,1.17
5,GAAGCGCGATCACATGGTCCT,0.582
6,TATTTATGTAAAGTATATGTA,1.01
7,CCAACGAGAAGCGCGATCACA,1.59
8,CTAAACTTTGTTTATAACTCT,0.738
9,CTATGAATCAATAGAAGAAGC,0.594
10,CAAGTGCAGATGTAAACCAAA,0.814
11,TATATATGTGTATGCATTTTA,1.19
12,TCTTCAAGGACGACGGCAACT,1.01
13,AGATCCGCCACAACATCGAGG,1.7
14,CTACTATCCTACGTTTAAATA,0.728
15,ACAGTGGCAATAAATTTATCT,0.791
16,GGTCGAGCTGGACGGCGACGT,0.955
17,CTGCCAAGAAGGGAAGGAGTA,1.14
18,CCCTGGGCTACGGCCTGCAGT,0.733
19,AGGGAAGGAGTACACAGACAA,1.16
20,TTAAATATCTTTGAAAGTTTG,1.05
21,AATTGTTTGGGTGAAGAGAAA,1.34
22,GGGCACAAGCTGGAGTACAAC,1.04
23,GAACCGCATCGAGCTGAAGGG,0.902
24,GGTGTCAATGAAGCCAAAATA,5.79
25,CCATGTTTGCAATCAAAGATG,0.444
26,ACTTCTTTCTCAGGCATCAAA,1.83

row,Sequence,fold depletion of shRNA
1,ATCAAGGCCAACTTCAAGATC,0.898
2,AAGATGTAGATTGTGTGATGA,1.86
3,CTTCATGGAAAGAAAGAAGCG,0.819
4,ATAAAATATAGGTAAAAGTAC,0.998
5,TGCCAATTCCACTAATTGTTT,0.898
6,TCTTACGTCTGTTGCTAGATT,1.71
7,TTCTGTAAATGTAAACTGTGA,0.829
8,GGGGCACAAGCTGGAGTACAA,1.76
9,TGAGATCAAGAATGACAATGT,3.58
10,CCTCTGGTTCTTACGTCTGTT,0.501
11,ATGCATTTTACTGGCTCAAAA,1.99
12,ACATGGCTTAGAAGTGGAAAT,1.01
13,AAGAAATAATATTTATATTTC,1.86
14,ACAAATTCAGTTCTGAGTATA,1.26
15,AAGTCAAGTTAAAGGCTTTGT,1.02
16,ATCAAAAGCATTTTGAGCAGG,1.4
17,TAACTCTACTGTATGTGAACA,1.29
18,AATGCCCAAGTGACTGACATC,0.596
19,TATGCAGAGGATGAAAGATTA,0.987
20,TTATTGGTGTCATATTATACA,0.87
21,TATAACTCTGAGAAGATCATA,1.3
22,ATGTAATCAGTGTATGTTAGT,1.38
23,CATTACTAGTGACTCAGAAAA,0.543
24,CTTCGTAATTGGCATCAACTT,1.34
